Laboratory results published in the supplement of paper PMC11417369.
This is one part of the list.

Test system: PfHDP1 homeodomain (GST-tagged)
Test: gcPBM binding intensity (ln(normalized median fluorescence intensity)); higher = stronger DNA binding
Procedure, shortened: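 In this array assay, P. falciparum DNA-binding domains with a GST tag, expressed in E. coli, were applied for 1 h to primer-extended double-stranded 36-bp intergenic genomic probes and negative controls on an Agilent 4 × 180k array. Bound protein was visualised with Alexa488 anti-GST antibody at 488 nm. Binding intensity is the highest Masliner-normalised natural-log median intensity across replicate spots of either probe orientation.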

Q: How did the “gcPBM binding intensity (ln)” value turn out when “TTTTTTTTTTTTTTTTCTTTTTTTTTTTTAAATAAG [XGTACX_negctrl_site418]” was run?
A: Its value is 5.65.

Q: “TTTTTTTTTTTTTACACACCCAAATCACATACATAT [CACACA_site6089]” was tested. Which “gcPBM binding intensity (ln)” value did it give?
A: The value was 6.85.

Q: With “AAAAAAAAAAAAAAAACACACAAGGATCAGATAGAT [CACACA_site7743]” as the sequence, how does the “gcPBM binding intensity (ln)” value read?
A: Its value is 6.58.

Q: With “TTTTTCAGAAAAGAAACACACATATAAATATTTATA [CACACA_site7170]” as the sequence, how does the “gcPBM binding intensity (ln)” value read?
A: Its value is 6.54.

Q: Which “gcPBM binding intensity (ln)” value does the source give for “TGTTGTTACCTATATACACACATATAAATATTATAG [CACACA_site7180]” here?
A: The value was 6.88.

Q: Which “gcPBM binding intensity (ln)” value does the source give for “AATATTATGATATTATGTACATATTAAAAGCACCAC [XGTACX_site6236]” here?
A: Its value is 7.51.

Q: For “AGGGCATATATATATGCACACATACATATATACATG [CACACA_site9282]”, which “gcPBM binding intensity (ln)” value is on record?
A: Its value is 8.86.

Q: How did the “gcPBM binding intensity (ln)” value turn out when “TTTACACTTTTTTTTGTACACACTAAAAAGATTAAC [CACACA_site3933]” was run?
A: The value was 6.58.

Q: “TTTATCATGAACAGAAGTACATTTATATCAATGTCT [XGTACX_site6470]” was tested. Which “gcPBM binding intensity (ln)” value did it give?
A: Its value is 6.12.

Q: How did the “gcPBM binding intensity (ln)” value turn out when “ATATATATATAATGTTGTACGTTTTATTCTCCCATT [XGTACX_site8071]” was run?
A: The value was 8.82.

Q: For “ATATATATATATTTTACACACAATGGAGAAAAAAAT [CACACA_site644]”, which “gcPBM binding intensity (ln)” value is on record?
A: Its value is 8.69.

Q: For “TATTTTTAAAAGTTAACAGAAAAAATATAAATAAAT [GTGCAC_negctrl_site295]”, which “gcPBM binding intensity (ln)” value is on record?
A: The value was 6.81.

Q: Which “gcPBM binding intensity (ln)” value does the source give for “TGGTATATACGACACACACACATATGTATAAATATA [CACACA_site6561]” here?
A: Its value is 7.

Q: For “TTTTCCCTTTTTTCCGCACACAATAAAATAAATAAA [CACACA_site2807]”, which “gcPBM binding intensity (ln)” value is on record?
A: Its value is 6.96.

Q: Which “gcPBM binding intensity (ln)” value does the source give for “TACCATAATCAATGCACACATAACAAAATATTATTA [CACACA_site2722]” here?
A: Its value is 9.98.

Q: “TGTAATAAAATAATTAGTACACATATATGTATATTT [XGTACX_site5896]” was tested. Which “gcPBM binding intensity (ln)” value did it give?
A: Its value is 6.32.

Q: For “GTTTAAAATCTTTGCACACATATAAATAAATATATT [CACACA_site2555]”, which “gcPBM binding intensity (ln)” value is on record?
A: The value was 10.4.

Q: How did the “gcPBM binding intensity (ln)” value turn out when “AGTATATTAATATAATGTACAAACGTTTATTTTGTA [XGTACX_site5980]” was run?
A: The value was 6.42.

Q: Which “gcPBM binding intensity (ln)” value does the source give for “AGCAACCCCCTAGCTACACACATATAGATATAAATA [CACACA_site6577]” here?
A: Its value is 7.48.

Q: “GAAAAGTAGACAATATGTACATATAGTATTTATAAA [XGTACX_site878]” was tested. Which “gcPBM binding intensity (ln)” value did it give?
A: The value was 6.75.

Q: “AAATATCTACATATTTGTACATATTTATACATATTT [XGTACX_site6300]” was tested. Which “gcPBM binding intensity (ln)” value did it give?
A: Its value is 6.12.

Q: For “TATATATTATAAAAGAGTACAGAAAGAAAAAAAAAT [XGTACX_site8305]”, which “gcPBM binding intensity (ln)” value is on record?
A: Its value is 7.28.

Q: Which “gcPBM binding intensity (ln)” value does the source give for “AAACTTTTTTTAAAAACACACATATATATTTATATA [CACACA_site4092]” here?
A: Its value is 6.66.

Q: “ATATTCAATATATTATGTACACATATATGAGGATAT [XGTACX_site7019]” was tested. Which “gcPBM binding intensity (ln)” value did it give?
A: Its value is 6.9.

Q: Which “gcPBM binding intensity (ln)” value does the source give for “AGTTTATATTATTAAAGTACATATATATATTCTTAA [XGTACX_site3164]” here?
A: The value was 6.2.

Q: How did the “gcPBM binding intensity (ln)” value turn out when “AGTCGAATGATGTACACACATACAAAACATTTATGC [CACACA_site4022]” was run?
A: The value was 6.7.

Q: Which “gcPBM binding intensity (ln)” value does the source give for “ATATATATATATATATGGTAAAGTAAAAGGAAATAC [XGTACX_negctrl_site45]” here?
A: The value was 9.54.

Q: For “GAATAATCTAGAAACACACAAACACGACAAAAGAAA [CACACA_site4135]”, which “gcPBM binding intensity (ln)” value is on record?
A: Its value is 7.04.

Q: With “TACTAACTTTTTAAAAGTACAGAACCATAACCATAA [XGTACX_site7182]” as the sequence, how does the “gcPBM binding intensity (ln)” value read?
A: The value was 6.79.

Q: How did the “gcPBM binding intensity (ln)” value turn out when “ATCATGTTATATATATGTACTAATAATATAATATAA [XGTACX_site1326]” was run?
A: Its value is 6.61.

Q: “TATATATAGAAACACACACACACATATATATATATA [CACACA_site4116]” was tested. Which “gcPBM binding intensity (ln)” value did it give?
A: The value was 9.25.

Q: For “AAAATTTAATATAATGCACACATAAAAAAAAAATCA [CACACA_site7882]”, which “gcPBM binding intensity (ln)” value is on record?
A: Its value is 10.7.

Q: For “AATATCAATATTATATGTACTTATAATTTCAATGTA [XGTACX_site2423]”, which “gcPBM binding intensity (ln)” value is on record?
A: Its value is 6.37.

Q: For “TAAATTTATTAATCAAGTACAAAATAAATTTTTATA [XGTACX_site2745]”, which “gcPBM binding intensity (ln)” value is on record?
A: The value was 5.78.

Q: Which “gcPBM binding intensity (ln)” value does the source give for “TATTTATAAAAAAAATGTACATTTATGTATAAGCTA [XGTACX_site3266]” here?
A: Its value is 6.63.

Q: “ATAATGTTTCTTTCAACACACAAAAAATGAACCCAT [CACACA_site4947]” was tested. Which “gcPBM binding intensity (ln)” value did it give?
A: The value was 7.16.

Q: Which “gcPBM binding intensity (ln)” value does the source give for “TAAAAAAGTTATATTACACACTTTATTGGTTAACTT [CACACA_site653]” here?
A: Its value is 6.18.

Q: For “ACATATAAATTATATACACACAATAATATATATATA [CACACA_site1384]”, which “gcPBM binding intensity (ln)” value is on record?
A: Its value is 8.56.

Q: For “TTTTTTTTTGTTAGTTGTACGTTAAATGAATTTACT [XGTACX_site7675]”, which “gcPBM binding intensity (ln)” value is on record?
A: Its value is 6.55.

Q: For “TAAATTAGAATAAATACACACAAATTAGAATTCTAT [CACACA_site7781]”, which “gcPBM binding intensity (ln)” value is on record?
A: Its value is 6.39.

Q: Which “gcPBM binding intensity (ln)” value does the source give for “TAAAGTGTCAAATTCACACACATATATATATATATA [CACACA_site1380]” here?
A: Its value is 9.28.

Q: How did the “gcPBM binding intensity (ln)” value turn out when “AATGATTTTAAAAAATGTACTTTATAAACAAAATTA [XGTACX_site3803]” was run?
A: Its value is 6.11.

Q: With “GTATAATTGGAAATTACACACCTTATAATGTAACAT [CACACA_site6091]” as the sequence, how does the “gcPBM binding intensity (ln)” value read?
A: The value was 6.31.

Q: “ATAAAAATAAATAAATTATATAAATGTAATATGAAA [GTGCAC_negctrl_site663]” was tested. Which “gcPBM binding intensity (ln)” value did it give?
A: Its value is 6.25.

Q: With “TTTAGAGAAGTCAAGTGTACATATAAAATAATTCAC [XGTACX_site4997]” as the sequence, how does the “gcPBM binding intensity (ln)” value read?
A: Its value is 6.31.

Q: How did the “gcPBM binding intensity (ln)” value turn out when “AAAAAAAAATATATATGTACATATGTATAATAAAAA [XGTACX_site2110]” was run?
A: The value was 6.69.

Q: Which “gcPBM binding intensity (ln)” value does the source give for “AATGAAGACTTTTTTACACACTTCATATATTATATA [CACACA_site2034]” here?
A: Its value is 6.83.

Q: How did the “gcPBM binding intensity (ln)” value turn out when “TATTTATTTATATATGCATGCTAATAATTATAACAT [TGCATGCA_site988]” was run?
A: The value was 6.77.

Q: “ATATTATATAACTTTTGTACGAACTATTTTATATAT [XGTACX_site6]” was tested. Which “gcPBM binding intensity (ln)” value did it give?
A: Its value is 6.73.

Q: How did the “gcPBM binding intensity (ln)” value turn out when “ACCTATGTATATTATACACACTCCAAACTATTCTTT [CACACA_site6939]” was run?
A: The value was 7.36.

Q: With “CCAAACTAAATGTACACACATACATAAATATAAATA [CACACA_site1141]” as the sequence, how does the “gcPBM binding intensity (ln)” value read?
A: Its value is 6.66.

Q: With “ATGTAATAAATATACACACACAAATATATATATATA [CACACA_site2395]” as the sequence, how does the “gcPBM binding intensity (ln)” value read?
A: The value was 9.07.

Q: How did the “gcPBM binding intensity (ln)” value turn out when CATGAATATTTTAATGTGCACATTTATCATTATATG was run?
A: The value was 10.6.

Q: With “ATATTTTCAGTTCTCCATTATGTTCCCATTATTTTT [CACACA_negctrl_site990]” as the sequence, how does the “gcPBM binding intensity (ln)” value read?
A: Its value is 7.03.

Q: “ATTTTAATTTGTTATACACACACAAAAAAAATTATA [CACACA_site9306]” was tested. Which “gcPBM binding intensity (ln)” value did it give?
A: Its value is 6.58.

Q: For “TATATCAAAATACATACACACATTTGTATTTACATT [CACACA_site5485]”, which “gcPBM binding intensity (ln)” value is on record?
A: Its value is 6.58.

Q: How did the “gcPBM binding intensity (ln)” value turn out when “TTTTTTTTTAATCATGCACACTGTTAAAAGAATAAA [CACACA_site4817]” was run?
A: The value was 8.29.
